Assay results from the supplement of paper PMC8728848.
The other results are listed elsewhere or left out.

Tests used:
Assay in all cases: glycan array binding signal (z-score within array); higher = stronger binding
Details in all cases: glycan notation: IUPAC condensed, linker removed
Neu5Ac(a2-3)Gal = target: Neu5Ac(a2-3)Gal
In short: (§1)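 Arrays were curated from the Consortium for Functional Glycomics database, 3228 in total, and kept only where the protein sequence was available. Binding is expressed as a within-array Z-score. This score was averaged across arrays of the same protein sequence at different concentrations or buffers and across linkers, and negative values can be read as non-binding.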

[1] = target: Neu5Ac(a2-3)Gal(b1-3)GalNAc
In short: as §1

[2] = target: Neu5Ac(a2-3)Gal(b1-3)GalNAc(b1-3)Gal(a1-4)Gal(b1-4)Glc
In short: as §1

[3] = target: Neu5Ac(a2-3)Gal(b1-3)GalNAc(b1-4)[Neu5Ac(a2-3)]Gal(b1-4)Glc
In short: as §1

[4] = target: Neu5Ac(a2-3)Gal(b1-3)GalNAc(b1-4)[Neu5Ac(a2-8)Neu5Ac(a2-3)]Gal(b1-4)Glc
In short: as §1

[5] = target: Neu5Ac(a2-3)Gal(b1-3)GalNAc6S
In short: as §1

[6] = target: Neu5Ac(a2-3)Gal(b1-3)GlcNAc
In short: as §1

[7] = target: Neu5Ac(a2-3)Gal(b1-3)GlcNAc(b1-2)Man
In short: as §1

[8] = target: Neu5Ac(a2-3)Gal(b1-3)GlcNAc(b1-2)Man(a1-3)[GlcNAc(b1-4)][Neu5Ac(a2-3)Gal(b1-3)GlcNAc(b1-2)Man(a1-6)]Man(b1-4)GlcNAc(b1-4)GlcNAc
In short: as §1

[9] = target: Neu5Ac(a2-3)Gal(b1-3)GlcNAc(b1-2)Man(a1-3)[Neu5Ac(a2-3)Gal(b1-3)GlcNAc(b1-2)Man(a1-6)]Man(b1-4)GlcNAc(b1-4)GlcNAc
In short: as §1

[10] = target: Neu5Ac(a2-3)Gal(b1-3)GlcNAc(b1-3)Gal(b1-3)GlcNAc
In short: as §1

[11] = target: Neu5Ac(a2-3)Gal(b1-3)GlcNAc(b1-3)Gal(b1-4)GlcNAc
In short: as §1

[12] = target: Neu5Ac(a2-3)Gal(b1-3)GlcNAc(b1-3)GalNAc
In short: as §1

[13] = target: Neu5Ac(a2-3)Gal(b1-3)GlcNAc(b1-4)Gal(b1-4)Glc
In short: as §1

[14] = target: Neu5Ac(a2-3)Gal(b1-3)GlcNAc(b1-6)GalNAc
In short: as §1

[15] = target: Neu5Ac(a2-3)Gal(b1-3)GlcNAc6S
In short: as §1

[16] = target: Neu5Ac(a2-3)Gal(b1-3)[Fuc(a1-4)]GlcNAc
In short: as §1

[17] = target: Neu5Ac(a2-3)Gal(b1-3)[Fuc(a1-4)]GlcNAc(b1-3)Gal(b1-3)[Fuc(a1-4)]GlcNAc
In short: as §1

[18] = target: Neu5Ac(a2-3)Gal(b1-3)[Fuc(a1-4)]GlcNAc(b1-3)Gal(b1-4)[Fuc(a1-3)]GlcNAc
In short: as §1

[19] = target: Neu5Ac(a2-3)Gal(b1-3)[GlcNAc(b1-6)]GalNAc
In short: as §1

[20] = target: Neu5Ac(a2-3)Gal(b1-3)[Neu5Ac(a2-3)Gal(b1-4)]GlcNAc
In short: as §1

[21] = target: Neu5Ac(a2-3)Gal(b1-3)[Neu5Ac(a2-6)]GalNAc
In short: as §1

[22] = target: Neu5Ac(a2-3)Gal(b1-3)[Neu5Ac(a2-6)]GlcNAc(b1-3)[Fuc(a1-3)[Gal(b1-4)]GlcNAc(b1-6)]Gal(b1-4)Glc
In short: as §1

[23] = target: Neu5Ac(a2-3)Gal(b1-3)]Neu5Ac(a2-3)Gal(b1-4)]GlcNAc
In short: as §1

Neu5Ac(a2-3)Gal(b1-4)Glc = target: Neu5Ac(a2-3)Gal(b1-4)Glc
In short: as §1

[24] = target: Neu5Ac(a2-3)Gal(b1-4)GlcNAc
In short: as §1

[25] = target: Neu5Ac(a2-3)Gal(b1-4)GlcNAc(b1-2)Man
In short: as §1

[26] = target: Neu5Ac(a2-3)Gal(b1-4)GlcNAc(b1-2)Man(a1-3)[GlcNAc(b1-2)Man(b1-4)GlcNAc(b1-2)Man(a1-6)]Man(b1-4)GlcNAc(b1-4)GlcNAc
In short: as §1

[27] = target: Neu5Ac(a2-3)Gal(b1-4)GlcNAc(b1-2)Man(a1-3)[GlcNAc(b1-4)][Neu5Ac(a2-3)Gal(b1-4)GlcNAc(b1-2)Man(a1-6)]Man(b1-4)GlcNAc(b1-4)GlcNAc
In short: as §1

[28] = target: Neu5Ac(a2-3)Gal(b1-4)GlcNAc(b1-2)Man(a1-3)[Neu5Ac(a2-3)Gal(b1-4)GlcNAc(b1-2)Man(a1-6)]Man(b1-4)GlcNAc(b1-4)GlcNAc
In short: as §1

[29] = target: Neu5Ac(a2-3)Gal(b1-4)GlcNAc(b1-2)Man(a1-3)[Neu5Ac(a2-3)Gal(b1-4)GlcNAc(b1-2)Man(a1-6)]Man(b1-4)GlcNAc(b1-4)[Fuc(a1-6)]GlcNAc
In short: as §1

[30] = target: Neu5Ac(a2-3)Gal(b1-4)GlcNAc(b1-2)Man(a1-3)[Neu5Ac(a2-6)Gal(b1-4)GlcNAc(b1-2)Man(a1-6)]Man(b1-4)GlcNAc(b1-4)GlcNAc
In short: as §1

[31] = target: Neu5Ac(a2-3)Gal(b1-4)GlcNAc(b1-2)[Neu5Ac(a2-3)Gal(b1-4)GlcNAc(b1-4)]Man(a1-3)[GlcNAc(b1-4)][Neu5Ac(a2-3)Gal(b1-4)GlcNAc(b1-2)[Neu5Ac(a2-3)Gal(b1-4)GlcNAc(b1-6)]Man(a1-6)]Man(b1-4)GlcNAc(b1-4)GlcNAc
In short: as §1

[32] = target: Neu5Ac(a2-3)Gal(b1-4)GlcNAc(b1-2)[Neu5Ac(a2-3)Gal(b1-4)GlcNAc(b1-4)]Man(a1-3)[GlcNAc(b1-4)][Neu5Ac(a2-3)Gal(b1-4)GlcNAc(b1-4)Man(a1-6)]Man(b1-4)GlcNAc(b1-4)GlcNAc
In short: as §1

[33] = target: Neu5Ac(a2-3)Gal(b1-4)GlcNAc(b1-2)[Neu5Ac(a2-3)Gal(b1-4)GlcNAc(b1-6)]Man(a1-6)[Neu5Ac(a2-3)Gal(b1-4)GlcNAc(b1-2)Man(a1-3)]Man(b1-4)GlcNAc(b1-4)GlcNAc
In short: as §1

[34] = target: Neu5Ac(a2-3)Gal(b1-4)GlcNAc(b1-2)[Neu5Ac(a2-3)Gal(b1-4)GlcNAc(b1-6)]Man(a1-6)[Neu5Ac(a2-3)Gal(b1-4)GlcNAc(b1-2)Man(a1-3)][GlcNAc(b1-4)]Man(b1-4)GlcNAc(b1-4)GlcNAc
In short: as §1

[35] = target: Neu5Ac(a2-3)Gal(b1-4)GlcNAc(b1-3)Gal
In short: as §1

[36] = target: Neu5Ac(a2-3)Gal(b1-4)GlcNAc(b1-3)Gal(b1-3)GlcNAc
In short: as §1

[37] = target: Neu5Ac(a2-3)Gal(b1-4)GlcNAc(b1-3)Gal(b1-4)GlcNAc
In short: as §1

[38] = target: Neu5Ac(a2-3)Gal(b1-4)GlcNAc(b1-3)Gal(b1-4)GlcNAc(b1-2)Man(a1-3)[Neu5Ac(a2-3)Gal(b1-4)GlcNAc(b1-3)Gal(b1-4)GlcNAc(b1-2)Man(a1-6)]Man(b1-4)GlcNAc(b1-4)GlcNAc
In short: as §1

[39] = target: Neu5Ac(a2-3)Gal(b1-4)GlcNAc(b1-3)Gal(b1-4)GlcNAc(b1-3)Gal(b1-4)GlcNAc
In short: as §1

[40] = target: Neu5Ac(a2-3)Gal(b1-4)GlcNAc(b1-3)Gal(b1-4)GlcNAc(b1-3)Gal(b1-4)GlcNAc(b1-2)Man(a1-3)[Neu5Ac(a2-3)Gal(b1-4)GlcNAc(b1-3)Gal(b1-4)GlcNAc(b1-3)Gal(b1-4)GlcNAc(b1-2)Man(a1-6)]GalNAc
In short: as §1

[41] = target: Neu5Ac(a2-3)Gal(b1-4)GlcNAc(b1-3)Gal(b1-4)GlcNAc(b1-3)GalNAc
In short: as §1

[42] = target: Neu5Ac(a2-3)Gal(b1-4)GlcNAc(b1-3)Gal(b1-4)GlcNAc(b1-3)[Neu5Ac(a2-3)Gal(b1-4)GlcNAc(b1-3)Gal(b1-4)GlcNAc(b1-6)]GalNAc
In short: as §1

[43] = target: Neu5Ac(a2-3)Gal(b1-4)GlcNAc(b1-3)Gal(b1-4)GlcNAc(b1-6)[Gal(b1-3)]GalNAc
In short: as §1

B1: rCNL (Clitocybe nebularis), B2ZRS9 (protein)
chain: SITPGTYNITNVAYTNRLIDLTGSNPAENTLIIGHHLNKTPSGYGNQQWTLVQLPHTTIYTMQAVNPQSYVRVRDDNLVDGAALVGSQQPTPVSIESAGNSGQFRIKIPNLGLALTLPSDANSTPIVLGEVDETSTNQLWAFESVSAV
- glycan array binding signal (z-score) (Neu5Ac(a2-3)Gal): -0.274
- glycan array binding signal (z-score) [1]: -0.311
- glycan array binding signal (z-score) [2]: -0.26
- glycan array binding signal (z-score) [3]: -0.313
- glycan array binding signal (z-score) [4]: -0.21
- glycan array binding signal (z-score) [5]: -0.232
- glycan array binding signal (z-score) [6]: -0.311
- glycan array binding signal (z-score) [7]: -0.219
- glycan array binding signal (z-score) [8]: -0.218
- glycan array binding signal (z-score) [9]: -0.45
- glycan array binding signal (z-score) [10]: -0.276
- glycan array binding signal (z-score) [11]: -0.232
- glycan array binding signal (z-score) [12]: -0.275
- glycan array binding signal (z-score) [13]: -0.224
- glycan array binding signal (z-score) [14]: -0.213
- glycan array binding signal (z-score) [15]: -0.238
- glycan array binding signal (z-score) [16]: -0.323
- glycan array binding signal (z-score) [17]: -0.303
- glycan array binding signal (z-score) [18]: -0.314
- glycan array binding signal (z-score) [19]: -0.225
- glycan array binding signal (z-score) [20]: -0.309
- glycan array binding signal (z-score) [21]: -0.293
- glycan array binding signal (z-score) [22]: -0.227
- glycan array binding signal (z-score) [23]: -0.223
- glycan array binding signal (z-score) (Neu5Ac(a2-3)Gal(b1-4)Glc): -0.302
- glycan array binding signal (z-score) [24]: -0.188
- glycan array binding signal (z-score) [25]: -0.174
- glycan array binding signal (z-score) [26]: -0.236
- glycan array binding signal (z-score) [27]: -0.226
- glycan array binding signal (z-score) [28]: -0.22
- glycan array binding signal (z-score) [29]: -0.214
- glycan array binding signal (z-score) [30]: -0.271
- glycan array binding signal (z-score) [31]: -0.225
- glycan array binding signal (z-score) [32]: -0.218
- glycan array binding signal (z-score) [33]: -0.206
- glycan array binding signal (z-score) [34]: -0.228
- glycan array binding signal (z-score) [35]: -0.229
- glycan array binding signal (z-score) [36]: -0.016
- glycan array binding signal (z-score) [37]: -0.02
- glycan array binding signal (z-score) [38]: 0.055
- glycan array binding signal (z-score) [39]: 0.167
- glycan array binding signal (z-score) [40]: 0.003
- glycan array binding signal (z-score) [41]: -0.22
- glycan array binding signal (z-score) [42]: -0.194
- glycan array binding signal (z-score) [43]: -0.168
